# Some of the results follow. Values were computed here from the reads of four pooled replicates and scatter widely.
# Target: T1, Pho4 (S. cerevisiae) (UniProt P07270)
# T1 sequence: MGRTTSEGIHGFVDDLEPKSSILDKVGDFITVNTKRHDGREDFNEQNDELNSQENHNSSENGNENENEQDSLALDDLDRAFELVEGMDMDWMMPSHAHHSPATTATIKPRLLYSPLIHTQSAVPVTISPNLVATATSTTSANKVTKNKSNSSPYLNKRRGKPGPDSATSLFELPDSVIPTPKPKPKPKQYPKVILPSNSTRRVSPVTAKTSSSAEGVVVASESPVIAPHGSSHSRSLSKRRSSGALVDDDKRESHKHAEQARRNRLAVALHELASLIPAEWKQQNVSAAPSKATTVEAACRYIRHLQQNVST
# Assay: relative binding free energy (BET-seq); higher = weaker binding
# Details: reference: library average
row,Sequence,relative binding free energy
1,CGTGCCACGTGAGGGG,-0.02 kcal/mol
2,CTTTGCACGTGGGTTA,-0.16 kcal/mol
3,TTGGGCACGTGGTGGC,-0.14 kcal/mol
4,GTATACACGTGGAGTG,-0.12 kcal/mol
5,TGCATCACGTGCAGGT,0.16 kcal/mol
6,CTTGTCACGTGGACGT,0.01 kcal/mol
7,TGGGACACGTGGTGGG,0.06 kcal/mol
8,GGATTCACGTGGTTTG,0.23 kcal/mol
9,TTCGGCACGTGGAGTG,-0.07 kcal/mol
10,CAGTTCACGTGTCGGT,0.34 kcal/mol
11,ACAGGCACGTGTATAG,0.08 kcal/mol
12,ACGCGCACGTGAGGGG,0.06 kcal/mol
13,TTGTACACGTGTTTTG,0.13 kcal/mol
14,TGTCTCACGTGTGTCG,0.16 kcal/mol
15,AGCAACACGTGGTTTT,0.01 kcal/mol
16,AGTGTCACGTGTCCGG,0.01 kcal/mol
17,GGAGTCACGTGGATTG,0.2 kcal/mol
18,TTGATCACGTGGGGCA,0.07 kcal/mol
19,TTGGTCACGTGAGCGT,0.22 kcal/mol
20,GCAGACACGTGTAGTG,0.15 kcal/mol
21,GGTAACACGTGGGCGC,0.06 kcal/mol
22,GTTTTCACGTGATGGA,0.36 kcal/mol
23,GATGTCACGTGGATAT,0.13 kcal/mol
24,ATCTGCACGTGTAAGA,0.2 kcal/mol
25,TCTGGCACGTGGTAAA,-0.14 kcal/mol
26,TGAAGCACGTGAGGGA,0.25 kcal/mol

row,Sequence,relative binding free energy
1,ACAGGCACGTGGATTG,-0.02 kcal/mol
2,TTTGACACGTGTAGGC,0.16 kcal/mol
3,TTGGCCACGTGGTTAG,-0.13 kcal/mol
4,GTTTACACGTGTGTAG,0.21 kcal/mol
5,CTGTGCACGTGCGGCG,-0.16 kcal/mol
6,TTGCGCACGTGGAATG,-0.12 kcal/mol
7,TTAGTCACGTGAATTT,0.3 kcal/mol
8,CTTGGCACGTGTAGGC,-0.11 kcal/mol
9,AGGGACACGTGCGTGC,0.01 kcal/mol
10,ATTATCACGTGGAGGC,0.18 kcal/mol
11,ATCGTCACGTGTTATA,0.13 kcal/mol
12,TGCTTCACGTGGAGCT,0.2 kcal/mol
13,TGTTCCACGTGGGAGG,-0.06 kcal/mol
14,TTTGACACGTGTCGTC,0.13 kcal/mol
15,GGCGACACGTGAGAGG,0.15 kcal/mol
16,CTATACACGTGGTAGG,-0.13 kcal/mol
17,TTCGTCACGTGGGGCT,0.08 kcal/mol
18,TCTAACACGTGTGTTG,-0.07 kcal/mol
19,CTTGTCACGTGGGGGG,-0.09 kcal/mol
20,CGTGTCACGTGAGATG,0.3 kcal/mol
21,TATGCCACGTGTAGTG,-0.03 kcal/mol
22,TAATGCACGTGGAAGT,0.12 kcal/mol
23,TGGATCACGTGGGGCC,0.12 kcal/mol
24,ACGGTCACGTGGGACG,0.05 kcal/mol
25,GCTTGCACGTGTGGGC,0.06 kcal/mol
26,TTAAACACGTGGCGTA,-0.11 kcal/mol

row,Sequence,relative binding free energy
1,CATCGCACGTGGGGAT,-0.05 kcal/mol
2,CTATTCACGTGTTGGA,0.27 kcal/mol
3,TTGAGCACGTGAGATT,0.28 kcal/mol
4,ATGTGCACGTGCAGGT,0.06 kcal/mol
5,TAAGTCACGTGACGTT,0.19 kcal/mol
6,TTGGTCACGTGGGGAG,0.01 kcal/mol
7,TCGTTCACGTGGTTTA,0.39 kcal/mol
8,TCTGGCACGTGGATGA,0.04 kcal/mol
9,GCCTTCACGTGTGAGG,0.49 kcal/mol
10,AGGCGCACGTGGTGGC,-0.31 kcal/mol
11,TGACACACGTGGGGTG,-0.25 kcal/mol
12,TTGTACACGTGGGCGG,-0.08 kcal/mol
13,TTGCCCACGTGGGGGT,-0.37 kcal/mol
14,TTTTACACGTGGTTCT,0.09 kcal/mol
15,TGAAGCACGTGGAGGT,-0.08 kcal/mol
16,GGTGTCACGTGCATTA,0.13 kcal/mol
17,TTCTTCACGTGGGTCT,0.17 kcal/mol
18,TGGGTCACGTGTTGTG,0.17 kcal/mol
19,TTAATCACGTGTTGGA,0.11 kcal/mol
20,GTTGACACGTGGTACG,-0.02 kcal/mol
21,TTGGCCACGTGCGGGA,-0.15 kcal/mol
22,AAGTTCACGTGCTTGG,0.25 kcal/mol
23,GGCTACACGTGGGTTG,0.09 kcal/mol
24,AGGCTCACGTGGTGTC,0.11 kcal/mol
25,CGAGCCACGTGGGGGT,-0.4 kcal/mol
26,ATCATCACGTGTAGGG,-0.06 kcal/mol

row,Sequence,relative binding free energy
1,TCTAGCACGTGTTATG,-0.13 kcal/mol
2,ACTTTCACGTGGTGGT,0.16 kcal/mol
3,GGATGCACGTGACGTT,0.16 kcal/mol
4,ATTATCACGTGTCTGT,0.17 kcal/mol
5,CGTGGCACGTGGTATA,-0.22 kcal/mol
6,GCGGTCACGTGAGAGT,0.27 kcal/mol
7,GGGGACACGTGAGGGA,0.26 kcal/mol
8,CGTGACACGTGTGTTA,-0.01 kcal/mol
9,GTTGGCACGTGGTAGC,-0.11 kcal/mol
10,CGATGCACGTGAGGGA,0.25 kcal/mol
11,CTAAGCACGTGTTGGT,-0.16 kcal/mol
12,AACGTCACGTGGGGAT,0.03 kcal/mol
13,GTGTGCACGTGGTGAT,0.06 kcal/mol
14,ATTGTCACGTGTGGTC,0.1 kcal/mol
15,GAAGTCACGTGAGAGT,0.35 kcal/mol
16,TTGTGCACGTGTAGTC,0.07 kcal/mol
17,GAGTTCACGTGGTGCA,0.27 kcal/mol
18,GGGGACACGTGGTTGA,0.1 kcal/mol
19,GGTGGCACGTGAAGAT,0.3 kcal/mol
20,TTCATCACGTGGGATA,0.16 kcal/mol
21,GTGCACACGTGGAAGT,0.25 kcal/mol
22,GTGCTCACGTGTTTAA,0.21 kcal/mol
23,TATTACACGTGTGTTG,0.04 kcal/mol
24,GCGCTCACGTGGTTGG,0.23 kcal/mol
25,GTGGCCACGTGGAATT,0.16 kcal/mol
26,GTTCGCACGTGGTTTG,0.05 kcal/mol

row,Sequence,relative binding free energy
1,TATTACACGTGGTTAC,0.1 kcal/mol
2,CTAGTCACGTGCGGTA,0.22 kcal/mol
3,CATAGCACGTGGTGTT,-0.08 kcal/mol
4,GTAGGCACGTGTATTG,0.07 kcal/mol
5,GTGGGCACGTGATTTA,0.04 kcal/mol
6,TGGGTCACGTGATTAG,0.19 kcal/mol
7,TGGTTCACGTGAGATT,0.31 kcal/mol
8,TGAGACACGTGGGGTC,-0.29 kcal/mol
9,GTTATCACGTGAATTG,0.41 kcal/mol
10,TTTACCACGTGAGTGT,0.1 kcal/mol
11,GTTATCACGTGAGAAT,0.46 kcal/mol
12,AGGTTCACGTGTATGT,0.31 kcal/mol
13,TGTCGCACGTGTGTAT,-0.14 kcal/mol
14,TTGAGCACGTGATATT,-0.01 kcal/mol
15,GTATTCACGTGTTAGG,0.32 kcal/mol
16,TGTGGCACGTGGGGTG,-0.19 kcal/mol
17,TTGGTCACGTGAACGA,0.36 kcal/mol
18,GAGTTCACGTGTTATT,0.42 kcal/mol
19,TTTGGCACGTGGAAGA,0.09 kcal/mol
20,TGGGGCACGTGGAGAT,-0.02 kcal/mol
21,TTGATCACGTGGTGGT,0.15 kcal/mol
22,GATGGCACGTGATGTC,0.03 kcal/mol
23,GGGGGCACGTGGCGTA,-0.12 kcal/mol
24,AATTTCACGTGTGAGC,0.38 kcal/mol
25,GAGTTCACGTGATATG,0.38 kcal/mol
26,GGCGGCACGTGGGGAC,-0.15 kcal/mol

row,Sequence,relative binding free energy
1,GGGCTCACGTGCTGGT,0.15 kcal/mol
2,GTTTACACGTGTATGC,0.1 kcal/mol
3,AATTTCACGTGGTCTA,0.17 kcal/mol
4,GTGTTCACGTGCTGAT,0.24 kcal/mol
5,TATGACACGTGATTGT,0.19 kcal/mol
6,ATATGCACGTGACGTT,0.18 kcal/mol
7,CATGTCACGTGGGATG,0 kcal/mol
8,CGAGGCACGTGGAAGG,-0.04 kcal/mol
9,GTATTCACGTGCTATT,0.15 kcal/mol
10,TTTTACACGTGGTGAA,0.06 kcal/mol
11,GGATGCACGTGGTTTC,0.11 kcal/mol
12,TTATTCACGTGAATTT,0.4 kcal/mol
13,GTTATCACGTGTGATG,0.21 kcal/mol
14,TTTGTCACGTGGGAGC,-0.06 kcal/mol
15,GTTGTCACGTGGTCGA,0.06 kcal/mol
16,GGCGGCACGTGGACAT,0.09 kcal/mol
17,GAATGCACGTGGTTAG,0.15 kcal/mol
18,TTTGACACGTGTTGAT,-0.04 kcal/mol
19,GACGGCACGTGGGAGT,-0.13 kcal/mol
20,GGCGGCACGTGCAAGG,0.02 kcal/mol
21,TTATACACGTGAAGTT,0.23 kcal/mol
22,AACGTCACGTGTGTTT,0.23 kcal/mol
23,GGTGTCACGTGTGTTA,0.18 kcal/mol
24,TAGTGCACGTGGCATG,-0.22 kcal/mol
25,TTGACCACGTGGGAGT,-0.14 kcal/mol
26,GAGTGCACGTGGGGTG,-0.11 kcal/mol

row,Sequence,relative binding free energy
1,GGTATCACGTGTACGT,0.21 kcal/mol
2,GAGCTCACGTGTGGGT,0.42 kcal/mol
3,ATGCGCACGTGGTGAT,-0.22 kcal/mol
4,ATTATCACGTGAAGGT,0.34 kcal/mol
5,CAGATCACGTGTATGT,0.19 kcal/mol
6,AATGTCACGTGCGGGA,0.05 kcal/mol
7,AATAGCACGTGTAGTG,-0.07 kcal/mol
8,TTTGTCACGTGCAGAG,0.03 kcal/mol
9,ACGGTCACGTGAGGGC,0.33 kcal/mol
10,TGTTGCACGTGGTGCT,-0.08 kcal/mol
11,TATGTCACGTGCATTG,0.15 kcal/mol
12,TGTATCACGTGATGTG,0.19 kcal/mol
13,GACTACACGTGTTGGT,0.23 kcal/mol
14,GGGGGCACGTGAGGAC,0.22 kcal/mol
15,GCTGGCACGTGAATGG,0.08 kcal/mol
16,TGTGCCACGTGCGGAG,-0.18 kcal/mol
17,AGTGTCACGTGTGTCG,0.04 kcal/mol
18,GGTGTCACGTGTCTAT,0.29 kcal/mol
19,GTCGGCACGTGGTACG,-0.12 kcal/mol
20,TGCAACACGTGGGGTA,-0.29 kcal/mol
21,GGCATCACGTGAGTGG,0.34 kcal/mol
22,GGATTCACGTGAAGGT,0.33 kcal/mol
23,GTTGGCACGTGAGATG,0.16 kcal/mol
24,ATGGTCACGTGGCATT,-0.07 kcal/mol
25,ATACGCACGTGGTAGT,-0.2 kcal/mol
26,GGTTACACGTGTAGGC,0.3 kcal/mol

row,Sequence,relative binding free energy
1,TTTGACACGTGAAAGG,0.27 kcal/mol
2,TAGGGCACGTGTGGCA,-0.12 kcal/mol
3,ATGAACACGTGGGCGT,-0.22 kcal/mol
4,GGAGGCACGTGTTTCT,-0.08 kcal/mol
5,TATTTCACGTGTGATC,0.22 kcal/mol
6,GGGTTCACGTGTTGTG,0.34 kcal/mol
7,AGACTCACGTGGGGAG,0.37 kcal/mol
8,CGTCGCACGTGATGGT,0.15 kcal/mol
9,GAAGTCACGTGGTCAG,0.11 kcal/mol
10,TGGAACACGTGTAGGG,-0.06 kcal/mol
11,GGTACCACGTGGTGAT,-0.03 kcal/mol
12,GTCGTCACGTGGTATA,0.14 kcal/mol
13,TTACGCACGTGAAGTG,0.15 kcal/mol
14,GTCAGCACGTGGGGTG,-0.26 kcal/mol
15,GTGGTCACGTGAGGAA,0.34 kcal/mol
16,GTTGGCACGTGTTTTC,-0.06 kcal/mol
17,TAGTGCACGTGGGAAC,-0.04 kcal/mol
18,GTGTGCACGTGGTGGA,-0.01 kcal/mol
19,CGCATCACGTGTTTGG,0.13 kcal/mol
20,CTTAACACGTGGGTTA,-0.12 kcal/mol
21,GTCTACACGTGTTGAG,0.15 kcal/mol
22,CATTTCACGTGGGATT,0.21 kcal/mol
23,TAGTGCACGTGTTGGC,0.02 kcal/mol
24,GAAATCACGTGATGTA,0.37 kcal/mol
25,AGGTTCACGTGTAGGT,0.26 kcal/mol
26,GCGATCACGTGGTGAT,0.14 kcal/mol

row,Sequence,relative binding free energy
1,GCTGTCACGTGGAGAG,0.14 kcal/mol
2,AGAGGCACGTGCTTAT,0 kcal/mol
3,TTGGGCACGTGCGCGT,-0.22 kcal/mol
4,TAATGCACGTGTGGGC,0.04 kcal/mol
5,TTTAGCACGTGGGATG,-0.14 kcal/mol
6,TGGATCACGTGGCTAG,0.1 kcal/mol
7,GATAGCACGTGTCTGG,0.01 kcal/mol
8,GATGTCACGTGGAATT,0.42 kcal/mol
9,TGCAGCACGTGGGTGG,-0.19 kcal/mol
10,TTGCGCACGTGGTCGT,-0.12 kcal/mol
11,TTGGGCACGTGCGTGG,-0.12 kcal/mol
12,GGTTTCACGTGACGAT,0.42 kcal/mol
13,TTGATCACGTGTATTC,0.17 kcal/mol
14,AAGGTCACGTGGCAGG,0.14 kcal/mol
15,GGTGACACGTGTGCCT,0.2 kcal/mol
16,CGGAGCACGTGATGTT,0.04 kcal/mol
17,TAAGTCACGTGATATG,0.02 kcal/mol
18,GAGGGCACGTGATAGC,0.05 kcal/mol
19,ATGGCCACGTGGTGTA,-0.16 kcal/mol
20,AAGATCACGTGGGTTA,0.11 kcal/mol
21,TGTGTCACGTGGAGCC,0.13 kcal/mol
22,TTCTACACGTGGTGTC,0.11 kcal/mol

# Source: the BET-seq Pho4 binding data (Le et al. 2018)
